Experimental data from paper doi:10.1101/2021.07.23.453429 (bioRxiv, 2021).

Molecular target: cyclophilin D (UniProt P30405)
Test: SPR

UniProt P30405, sequence (P30405 43-207): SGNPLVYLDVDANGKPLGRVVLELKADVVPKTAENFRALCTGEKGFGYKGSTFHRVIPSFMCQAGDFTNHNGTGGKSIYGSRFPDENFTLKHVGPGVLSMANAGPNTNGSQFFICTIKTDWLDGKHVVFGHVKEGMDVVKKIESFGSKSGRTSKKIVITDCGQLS

B1: p53 NTD […] (domain or fragment)
chain: not shown
Kd: ~6 µM
